Over roughly 13,000 compounds, “IFI” has its median near 4; the highest 2% begin near 17. The list shows a part of the results.

The experiment can be described thus: GSK_TCMDC: Inhibition Frequency Index (IFI). The number of non-kinase HTS assays where a compound showed > 50 % inhibition, expressed as a percentage of the number of such assays in which the compound was tested (-0 is zero). The format is functional.
For `COc1cc(C)ccc1N1CCN(CCCCNC(=O)c2ccc(NC(=O)c3ccc(Cl)cc3)cc2)CC1`, the IFI is 4.5%. The figure for `CN(C)c1cc(NC(=O)Nc2ccccc2)c2ccccc2n1` is 4.05%; for `CC(=O)c1ccc(Nc2c(C(N)=O)cnc3cc(-c4c(C)noc4C)ccc23)cc1` it is 0.81%. The figure for `COc1ccc2c(NN=Cc3ccccc3Cl)ccnc2c1` is 1.42%.

Take `Cn1ncc2c3c(CCN4CCC(NCc5cc6c(cn5)OCC6)CC4)c(Cl)cnc3ccc21`: the IFI turned out to be 3.7%. In turn, `COc1nc(Nc2cccc(C)c2)nc(OC)n1` returned an IFI of 0.75%. In the case of `Nc1cc(/C=C/c2ccc([N+](=O)[O-])o2)nc2ccccc12`, the IFI is 16.7%. The same measure for `COc1ccccc1-c1nc2c(ccc3nc(N)nc(N)c32)[nH]1`: 9.76%.

Take `O=C(NCCCCCN1CCC(c2c[nH]c3ccccc23)CC1)Nc1ccc(Cl)c(Cl)c1`: the IFI turned out to be 3.97%. The figure for `Oc1ccc(CCNc2nc(NCCCOc3ccccc3-c3cccc(C(F)(F)F)c3)nc(N3CCNCC3)n2)cc1` is 10.5%; for `CC(C)(C)c1ccc(NC(=O)c2ccc(CN3CCCN(Cc4cccc(Cl)c4)CC3)cc2)cc1` it is 17.2%.

`CCc1cn2c3c(cc(C(=O)N[C@@H](Cc4ccccc4)[C@H](O)CNC(C)(C)c4cccc(OC)c4)cc13)N(C)S(=O)(=O)C2` yielded an IFI of 6.43%. The figure for `O=C(/C=C/c1ccc(Cl)c(Cl)c1)NCCCCCN1CCC(C(=O)Nc2ccc(Cl)c(Cl)c2)CC1` is 13.9%; for `COc1ccc(-c2csc(C(=O)NC3CCC(N4CCC(c5ccccc5C)CC4)CC3)c2)cc1` (stereo not drawn) it is 14%.

On to `Cc1nnc2c(NC(=O)NC(C)C)cc3cc(-c4ccc(CN5CCCCC5)cc4)ccc3n12`, for which the IFI was found to be 10.5%. The same measure for `Cc1[nH]c(C)c(-c2ccc(-c3ccc(C(F)(F)F)cc3C(F)(F)F)nc2)c(=O)c1Br`: 2.56%. The same measure for `O=C(Nc1ccc(Cl)cc1)Nc1ccc(OCC(O)CN2CCCCC2)cc1` (stereo not drawn): 2.04%. The same measure for `COc1ccc2c(NN=CC=Cc3ccccc3)ccnc2c1`: 4.58%. The compound `O=C(c1cc(-c2cccs2)n[nH]1)N1CCN(S(=O)(=O)c2ccc(Cl)s2)CC1` registered an IFI of 6.98%.

For the compound `COc1cc2nc(N3CCC(CNC(=O)c4ccc(-c5ccc(C(=O)N(C)C)cc5)c(OCCO)c4)CC3)nc(N)c2cc1OC`, the IFI turned out to be 0.91%.

Regarding `CCCCCOc1ccc(C(=NC)N(CCCCC)CCCCC)c2ccccc12`, the IFI was determined as 25.2%. The figure for `Cc1cc(-c2cccc(CNC3CCN(C)CC3)c2)ccc1S(=O)(=O)NC1CCC1` is 7.48%; for `CC(C)CC(C)NC(=O)C1Cc2c([nH]c3ccc(F)cc23)C2(CCN(Cc3ccccc3)CC2)N1` (stereo not drawn) it is 5.8%. As for `CN(CCCNCc1cccc2ccccc12)CCCNCc1cccc2ccccc12`, the IFI came to 12.6%.

On to `FC(F)(F)c1ccc2c(NCCc3ccccc3)ccnc2c1`, for which the IFI is 2.22%. `CCCCCCCCc1c(C)nc(C)c(C#N)c1O` yielded an IFI of 5.07%. The figure for `CC(CCCC(=O)Nc1ccc(CC(C)NCCc2cccc(Cl)c2)cc1)NCCc1cccc(Cl)c1` (stereo not drawn) is 11.9%; for `CCCCCN1CCCN(Cc2cccc(NC(=O)c3ccc(Cl)c(Cl)c3)c2)CC1` it is 5.41%. `COc1ccc(NS(=O)(=O)c2cc(NC(=O)Cn3ccccc3=O)ccc2N2CCCCC2)cc1` displayed an IFI of -0%.

With `Nc1nccc2ccc(OC3CCCCC3)cc12`, the IFI amounted to 5.41%. The same measure for `CCN(CC)CCN(Cc1ccc(-c2ccc(C(F)(F)F)cc2)cc1)C(=O)Cn1cc(CCCc2cccc(F)c2F)c(=O)c2ccccc21`: 5.15%; for `COc1cc(Cc2cnc(N)nc2N)c2ccsc2c1OC`: 0%. `Cc1ccc(NC(=O)Nc2ccc(Cl)c(C(F)(F)F)c2)cc1-c1ccc(C(=O)NCCN2CCOCC2)cc1` showed an IFI of 13.2%. The same measure for `CCCNC(=O)Nc1cc2cc(-c3ccc(CN4CCCC4)cc3)ccc2n2c(C)nnc12`: 5.56%; for `COc1ccc(CNCc2cccc(-c3ccc(-c4nc5ccccc5[nH]4)s3)c2)cc1`: 7.69%. On to `COc1cccc(-c2nn(C)c3sc(C(=O)Nc4cccnc4)cc23)c1`, for which the IFI is -0%. The same measure for `CC(CN1CCN(C)CC1)C(=O)Nc1cccc(-c2cccc(-c3nc4ccccc4[nH]3)c2)c1` (stereo not drawn): -0%.

Compound `CC(C)Cn1ncc2c3c(N)nc(N)nc3ccc21` had an IFI of 2.1%. The figure for `CN(CCCNC(=S)NC12CC3CC(CC(C3)C1)C2)CCCNc1ccnc2cc(Cl)ccc12` is 7.46%; for `FC(F)(F)c1ccc2c(NCCCNc3ccnc4cc(C(F)(F)F)ccc34)ccnc2c1` it is 3.25%.

In turn, `Clc1ccc(Nc2nc(-c3ccccn3)cs2)nc1` registered an IFI of 9.59%. The figure for `CCN(CC)CCN(Cc1ccc(-c2ccc(C(F)(F)F)cc2)cc1)C(=O)Cn1c(CCc2cccc(F)c2F)c(C)c(=O)c2ccccc21` is 5.88%; for `CC(C)CC1c2[nH]c3ccccc3c(=O)c2CN1C(=O)OC(C)(C)C` (stereo not drawn) it is 1.57%. The figure for `COc1cc2nc(NCC3CCCO3)n3nc(-c4ccccc4)nc3c2cc1OC` (stereo not drawn) is -0%. The same measure for `O=C(Nc1cccc(-c2nn3ncccc3c2-c2ccnc(Nc3ccc(N4CCOCC4)cc3)n2)c1)c1c(F)cccc1F`: 5.51%. Turning to `COc1ccc(NC(=O)/C=C/c2ccc(-c3ccc(-c4noc(C)n4)cc3)cc2)cc1OCCN(C)C`, the IFI came to 2.96%. The figure for `CCCCCOc1c(CCC)cc(Cc2cnc(N)nc2N)cc1CCC` is 11%; for `c1ccc2[nH]c(-c3ccc(-c4ccc(CNCC5CCCO5)cc4)s3)nc2c1` (stereo not drawn) it is 6.86%. The figure for `Cc1cc(NC(=O)Nc2ccc3ncccc3c2)c2ccccc2n1` is 0.71%; for `Cc1nc(C)c(-c2ccc(Sc3ccc(Cl)cc3)cc2)c(O)c1Br` it is 3.82%; for `CCCc1cc2c3c(N)nc(N)nc3ccc2n1CC` it is 4.24%. Regarding `Nc1ccn([C@@H]2O[C@H](COC(c3ccccc3)(c3ccccc3)c3ccccc3)[C@@H](O)[C@@H]2O)c(=O)n1`, the IFI came to 0%. The same measure for `CCCCCCCC1CC(CC(=O)Nc2ccnc3ccc(OC)cc23)CN1` (stereo not drawn): 6.82%. The figure for `COc1ccc(C(=C(C)CC(C)C(=O)O)c2ccccc2)cc1` (stereo not drawn) is 1.46%; for `c1ccc(CN2CCC(NCc3cccc(-c4cncc5ccccc45)c3)CC2)cc1` it is 8.2%. The figure for `Clc1ccccc1CN1CCC(NCc2cccc(-n3ccnc3)c2)CC1` is -0%.

As for `C=CCc1cc(C2CCN(CCCCNC(=O)c3ccc(-c4ccc(C#N)cc4)cc3)CC2)c(OCC(N)=O)c2c1CCCC2`, the IFI worked out at 8.33%. The figure for `COc1ccc(F)cc1-c1ccccc1CNC(=O)CN(C)S(=O)(=O)c1cc(C)cc(Cl)c1C` is 2.86%.

On to `COc1ccc2c(=NN=Cc3cccc(F)c3)cc(C)[nH]c2c1`, for which the IFI came out at 3.76%.

For the compound `Cc1nn(C)c(C)c1CN(Cc1nc(-c2cccc(Oc3ccccc3)c2)oc1C)C1CC1`, the IFI is 4.88%.

For the compound `O=[N+]([O-])c1ccc2ncnc(Nc3ccc(F)c(Cl)c3)c2c1`, the IFI came out at 1.36%. The figure for `COc1ccc2c(NN=Cc3ccccc3)ccnc2c1` is -0%; for `Oc1ccccc1CN1CCN(C(c2ccccc2)c2ccccc2)CC1` it is 2.02%. The same measure for `CC(C)NCc1ccc(-c2cccc(NC(=O)c3cccc(C#N)c3)c2)cc1`: 1.96%; for `COc1ccc(CN2CCCC(C(=O)c3ccc(C(F)(F)F)cc3)C2)c(O)c1` (stereo not drawn): 4.65%; for `CC1N=C(N)N=C(N)N1OCc1cccc2ccccc12` (stereo not drawn): 3.6%. The same measure for `CCN(CC)CCN(Cc1ccc(-c2ccc(C(F)(F)F)cc2)cc1)C(=O)Cn1cc(Cc2cnn(C)c2)c(=O)nc1/C=C/c1cccc(F)c1F`: 6.62%. Turning to `COc1cc(C(=O)Nc2cccc(-c3cn4cccc(C)c4n3)c2)cc(OC)c1OC`, the IFI was 2.76%.

`CC(=O)Nc1cccc(C(=O)Nc2cccc(-c3cccc(-c4nc5cc(F)ccc5[nH]4)c3)c2)c1` returned an IFI of 4.42%. Compound `Cn1c(-c2ccccc2)cc2c3c(N)nc(N)nc3ccc21` returned an IFI of 9.42%. The figure for `CN(C)CCCNc1nccc(N(C)c2ccc(NC(=O)Nc3cc(C(F)(F)F)ccc3F)cc2)n1` is 7.35%; for `Cc1cccc2nc(-c3cccc(-c4cccc(CN5CCN(c6ccc(C#N)cn6)CC5)c4)c3)[nH]c12` it is -0%. The figure for `Cc1cc(N2CCNCC2)c2cc(NC(=O)Nc3ccc(Cl)c(Cl)c3)ccc2n1` is 4.29%; for `Oc1ccccc1CN(CCCN(Cc1ccccn1)Cc1ccccc1O)Cc1ccccn1` it is 3.82%; for `Cc1cc(NCC(c2ccccc2)c2ccccc2)nc(NCc2ccc(C(F)(F)F)cc2)n1` it is 12.1%. The figure for `Cc1cc2[nH]c(-c3ccc(C(=O)NCCCN4CCN(c5cccc(Cl)c5)CC4)s3)nc2cc1Cl` is 0.74%. `c1ccc(CCNCc2cccc(-c3ccc(CNc4ccc5ncccc5c4)cc3)c2)cc1` had an IFI of 12.6%. The same measure for `CON=C1CCC(Cn2ccnc2)(c2ccc(Cl)cc2Cl)CC1` (stereo not drawn): 3.45%; for `O=C(/C=C/c1ccc(Cl)c(Cl)c1)NC1CCC(CN2CCC(c3c[nH]c4ccncc34)CC2)CC1` (stereo not drawn): 1.42%; for `c1ccc(COc2ccc(Nc3ncnc4cnc(-c5ccc(CNc6cccnc6)o5)cc34)cc2)cc1`: 2.86%. Compound `CN1CCCc2ccc(NC(=O)C=Cc3ccc(-c4ccc(F)cc4F)o3)cc2C1` registered an IFI of 8.33%.

`C[C@@H](Oc1cc(-n2cnc3ccc(OCC4CCN(S(C)(=O)=O)CC4)cc32)sc1C(N)=O)c1ccccc1C(F)(F)F` registered an IFI of 9.29%. The same measure for `CCCN1CCN(CCNc2c3ccccc3nc3ccccc23)CC1`: 5.15%; for `Cc1n[nH]c2cc(Nc3ccnc(Nc4cccc(CN5CCOCC5)c4)n3)ccc12`: 3.33%; for `COc1cc2nccc(Nc3ccc(Oc4ccccc4)cc3)c2cc1OC`: 2.19%. The same measure for `CCc1cc(OC)ccc1C1CCN(CCCCNC(=O)c2ccc(NC(=O)c3ccc(Cl)cc3)cc2)CC1`: 3.73%. The same measure for `CCC(C)NC(=O)CN1CN(c2ccccc2)C2(CCN(C(=O)c3ccc(C(C)(C)C)cc3)CC2)C1=O` (stereo not drawn): 3.33%; for `COc1ccc2ccccc2c1CCCCN1CCN(CC(c2ccc(F)cc2)N2CCC2)CC1` (stereo not drawn): 18.4%; for `CN1CCN(CCCN(Cc2ccc(-c3cccc(CNC4CCCC4)c3)cc2)C(=O)Nc2ccccc2)CC1`: 3.57%.

For the compound `O=S(=O)(NC1CCN(c2ccnc3cc(Cl)ccc23)C1)c1ccc(F)cc1` (stereo not drawn), the IFI is -0%. The figure for `CCC(C)(C)C1CCc2[nH]c3ccccc3c(=O)c2C1` (stereo not drawn) is 1.45%. The figure for `O=C(Nc1ccc(C(=O)Oc2ccc(-c3ccccc3)cc2)cc1)N[C@@H](Cc1ccc(O)cc1)C(=O)NC1CCN(Cc2ccc(O)cc2)C1` (stereo partly drawn) is 8.78%; for `OCC1CCN(Cc2ccc(-c3cccc(-c4nc5ccccc5[nH]4)c3)cc2)CC1` it is 0.97%.
